Screen size: about 150,000 compounds; about 540 (0.36%) showed an effect of 50% or more. The list shows a part of the results.
System: Plasmodium falciparum
Test: Primary screen in NF54 nanoGlo assay, in single point, at 2uM, 72h; a lower Z score goes with more inhibition
Assay type: functional, Erythrocyte
Conditions: timepoint 72 hour

Row | SMILES | % Inhibition | Z score
1 | CC(C)OCCS(=O)(=O)NCc1cccc(Cl)c1F | -2% | 0.16
2 | CC(C)c1nnc2n1[C@H](C(=O)NCC(N)=O)CCCC2 | -14% | 1.68
3 | COc1ccc(C(=O)CC#N)cc1OC | -3% | 0.34
4 | Cn1nc(C(F)(F)F)cc1CNC(=O)Nc1cnnn1C | 2% | -0.37
5 | CC[C@H](C)n1cc(C(=O)NCc2ccc(Cl)s2)c(=O)c(C(=O)N2CCCCCC2)c1 | 10% | -1.7
6 | O=S(=O)(NC1CCc2ccc(Cl)cc21)[C@H]1COC[C@@H]1O (some centres undefined) | -11% | 1.47
7 | CC1CN(Cc2ccccc2)CCC1N(C)Cc1cscn1 (centres undefined) | 0% | -0.03
8 | CCN(CC)[C@H]1CCN(S(=O)(=O)c2ccc3c(c2)CCO3)C1 | -6% | 0.79
9 | C1CCN2CCC[C@@H](CCc3nc(CN4CCOCC4)no3)[C@H]2C1 | -9% | 0.98
10 | CCN(CC)c1ccc(NC(=O)c2ccc(OCC(C)C)nc2)cn1 | -8% | 1.26
11 | O=C(NCc1nc2c(s1)CCCC2)[C@@H]1COc2ccc(O)cc2O1 | -7% | 1.14
12 | Cc1ccccc1NC(=O)Cc1nnc2c(-c3nc(C4CC4)no3)cccn12 | -7% | 1.03
13 | CC(C)=CCC/C(C)=C/CNC(=O)Nc1ccnn1C | -14% | 1.53
14 | O=C1CC(C(=O)NCc2ccc(NC(=O)C(F)(F)F)nc2)C1 | -3% | 0.48
15 | Cc1ccc(C(=O)Cn2cnc3c2c(=O)n(C2CCCC2)c(=O)n3-c2ccccc2Cl)cc1 | -13% | 1.87
16 | COc1ccc(-c2noc3nc(C)cc(C(=O)Nc4c(C)nn(Cc5ccc(F)cc5)c4C)c23)cc1 | -6% | 0.83
17 | O=C(Nc1ccc(Cl)cn1)c1cccc2ccccc12 | -6% | 1.15
18 | CCc1cc(NC(=O)[C@H]2CC(=O)N(c3ccc(C)cc3)C2)n(C)n1 | -9% | 1.6
19 | COc1ccc(OC)c(CNC(=O)COc2ccc(N3CCN(C4CCCCC4)CC3)nn2)c1 | 4% | -0.71
20 | CC(C)CC(=O)C1CCCN(C(=O)CCC2(Cc3cccc4ccccc34)CCC(=O)N2)C1 (centres undefined) | 13% | -1.7
21 | Cc1cc(C(=O)N[C@H]2[C@H](O)[C@H](O)C[C@@H]2c2ccccc2)nn1C | 10% | -1.3
22 | Nc1c2c(-c3cccc(Cl)c3)nc(NCc3ccccn3)nc2nn1-c1cccc(F)c1 | -9% | 1.1

Row | SMILES | % Inhibition | Z score
23 | Cc1n[nH]c(C)c1-c1ccc(NCCO)nn1 | 5% | -0.8
24 | CCCc1nc(C)sc1C(=O)Nc1ccc(OC)nc1 | 2% | -0.3
25 | N#Cc1ncn(C[C@H]2CCC3(CCCCC3)O2)c1C#N | -10% | 1.82
26 | Cc1noc(C)c1S(=O)(=O)N1CCCCCCC1 | -5% | 0.7
27 | O=C(Nc1nnc(C2CC2)s1)c1ccc(S(=O)(=O)N2CCCC2)cc1 | -4% | 0.48
28 | Cc1cc(C)nc(C2CN(C(=O)c3cc(Cl)cc(F)c3N)C2)n1 | -14% | 2.19
29 | Cc1cc(C2CCN(c3cc(C#N)c(Br)cn3)CC2)[nH]n1 | 14% | -1.61
30 | O=C(O)C1CCCN1C1CCN(Cc2ccccc2)C1 (centres undefined) | -17% | 3.32
31 | COc1ccc2c(c1)CN(C(=O)[C@]1(O)CCOC1)CC2 | -12% | 1.34
32 | Nc1c(-c2ccncc2)nsc1C(=O)NCc1ccccc1F | -14% | 1.38
33 | CCCS(=O)(=O)CCN1CCCC[C@H]1c1ncc[nH]1 | 1% | -0.12
34 | CN(C)[C@@H]1CO[C@H](CNC(=O)c2ccc(F)cc2)[C@H]1O | 11% | -1.28
35 | O=C(N/C(=N/c1ccccc1)N1CCN(Cc2cccc(F)c2)CC1)c1ccc(Br)cc1 | -1% | 0.26
36 | O=C(c1ccc2cc[nH]c2c1)N1CCC2(CC1)C[C@@H](Cc1ccc(F)cc1)CCO2 | 9% | -0.97
37 | O=C(CCn1cccn1)Nc1cnc(-c2ccccc2)s1 | -7% | 1.22
38 | COc1ccc(CC(=O)NCC2(C)CCOCC2)cc1 | -6% | 0.97
39 | CCN(CC)c1cc(N2Cc3cnc(-c4ccccc4)nc3C2)nc(N)n1 | -2% | 0.29
40 | COC(=O)c1ccc2nn(CCc3c(C)noc3C)c(=O)n2c1 | -11% | 1.07
41 | Cc1cc(N2CCC[C@@]3(CCC(=O)N(CCCO)C3)C2)nc(N(C)C)n1 | -12% | 1.63
42 | O=C(c1cccc(S(=O)(=O)N2CCCC2)c1)N(c1ccc(Cl)cc1)c1nc2ccccc2s1 | -7% | 1.03
43 | CN(Cc1ccccc1)S(=O)(=O)N1C[C@@H]2NCCO[C@H]2C1 | -8% | 0.98
44 | COc1ccc(CN2CCN(c3ccncc3C)CC2)cc1Cn1cccn1 | -15% | 1.41

Row | SMILES | % Inhibition | Z score
45 | COc1ccc(C=C(c2nnnn2-c2ccc(C)cc2)c2nnnn2-c2ccc(C)cc2)cc1OC | -9% | 1.8
46 | O=C(CC1CCCCC1)Nc1nc(C2CC2)cs1 | -7% | 1
47 | COc1ccc2nc(CN3CCC[C@H](OC)C3)sc2c1 | 17% | -2.46
48 | CCN(CC)C(=O)Cn1cccc1-c1nc(-c2ccc(OC)c(OC)c2)no1 | 7% | -1.05
49 | COCCN1CC[C@@]2(CCC1=O)CN(C(=O)c1ccc(C)s1)CCN2C | -3% | 0.39
50 | Cn1ncc(CNC[C@H](O)c2ccc(Br)cc2)n1 | -6% | 1.26
51 | CC(=O)NCCCNC(=O)Cc1ccc(Cl)cc1Br | 2% | -0.22
52 | O=C([C@@H]1CCCO1)N1CCN(c2nccs2)CC1 | -6% | 1.01
53 | OCc1ccc(-c2c(-c3ccccc3)ncn2CCc2cn[nH]c2)o1 | -6% | 0.97
54 | O=C(c1ccc2c(c1)CCCN2)N1CCC[C@@H]2OCC[C@@H]21 | -3% | 0.53
55 | CC[C@H](CO)NC(=O)Nc1snnc1-c1ccccc1 | -14% | 1.53
56 | O=c1[nH]nc(-c2nc(-c3cnccn3)no2)c2ccccc12 | -9% | 1.44
57 | O=C(NCc1ccc(F)cc1)c1cnn2c1OCCC2 | -11% | 1.36
58 | COCc1nc(-c2ccncc2)nn1CC(F)(F)F | 1% | -0.23
59 | Cn1c(Cn2cccn2)nnc1[C@H]1CCCN(c2nc(CO)cs2)C1 | 1% | -0.08
60 | CC1(C(=O)N2CC3(CC3)C2)CCCCCC1 | -4% | 0.63
61 | CC[C@H](OC)c1nc(C2(N)CCC2)no1 | 2% | -0.28
62 | Cc1nc(CN(C)C(=O)Nc2cc(-c3ncco3)ccc2C)no1 | -3% | 0.37
63 | c1cc2c(cc1CN1CCCCCC1)OCO2 | 1% | -0.13
64 | O=C(Nc1ccc(-c2onc3c2CCCC3)cc1)c1c(Cl)cc(Cl)cc1Cl | -2% | 0.3
65 | O=C1N(c2ccc(F)cc2)Cc2nc(=O)n(C3CCCC3)n21 | 35% | -3.95
66 | C[C@H]1CN(CCc2ccc(S(N)(=O)=O)cc2)CC(C)(C)O1 | -5% | 0.71

Row | SMILES | % Inhibition | Z score
67 | COc1ccc(-c2cc(C(=O)NCCc3ccccn3)[nH]n2)cc1OC | -5% | 0.68
68 | Cc1ccc(CC2CCN(C(=O)c3ccc4c(c3)NC(=O)CNC4=O)CC2)cc1C | -4% | 0.46
69 | Cc1nn(C)cc1CNC(=O)c1ccc2c(c1)OCO2 | 0% | -0.07
70 | COc1ccc2nc(C)c(C(=O)N3CC(C(F)(F)F)C3)n2n1 | -9% | 1.32
71 | C[C@@H](C(=O)NCCn1cnc2c(N)ncnc21)c1ccccc1 | 20% | -2.53
72 | Oc1cccc(C2Nc3ccc(Br)cc3[C@H]3OCC[C@@H]23)c1 (some centres undefined) | -1% | 0.14
73 | CN1CCC2(CCN(C(=O)NCc3cc(C4CC4)ccc3F)CC2)C1=O | -6% | 0.82
74 | CN(Cc1ccc2c(c1)OCCO2)c1nc(N)nc(C(C)(C)C)n1 | 6% | -1.11
75 | O=C([C@H]1CC12CCC2)N1CCC(Oc2ccccc2)(C(=O)O)CC1 | -4% | 0.66
76 | CC[C@H](NCc1nncn1C)c1ccc2c(c1)CC(C)(C)O2 | -13% | 1.71
77 | O=C(NC1CCCC1)c1sccc1S(=O)(=O)N1CCOCC1 | -45% | 5.29
78 | Cn1cnnc1[C@@H]1CCCN1Cc1cc(Cl)cc(C(F)(F)F)c1 | -1% | 0.17
79 | COc1cc2c(-c3ccccc3)c(C)oc2cc1CN1CCc2ccccc2C1 | -3% | 0.58
80 | COc1nccnc1N1CCN(C)C[C@H](O)C1 | -1% | 0.2
81 | CCOc1cc(CNC(=O)Cn2cnc3onc(C)c3c2=O)ccc1OC | -4% | 0.55
82 | O=C(Nc1onc2c1CCC2)c1ccc2ncsc2c1 | 0% | 0.01
83 | CC(=O)n1nc2c(c1C)[C@@H](c1ccc(Cl)cc1)c1c(nc(C)[nH]c1=O)O2 | -5% | 0.52
84 | CN1C(=O)COc2cc(-c3noc(C(=O)NCc4ccccn4)n3)ccc21 | 4% | -0.45
85 | Nc1cc(C(=O)NCC[C@H]2CCCOC2)n[nH]1 | -13% | 2.39
86 | COCCc1noc(CNC(=O)Cc2ccsc2)n1 | -11% | 1.28
87 | CCN(CC)C(=O)[C@@H]1CCCN1C(=O)c1ccnc(N(C)C)c1 | -18% | 2.85

Reference: ChEMBL document CHEMBL4888484, “Replenishing the malaria drug discovery pipeline: Screening and hit evaluation of the MMV Hit Generation Library 1 (HGL1) against asexual blood stage Plasmodium falciparum ,using a nano luciferase reporter read-out” (2022)
